# Source: PubChem BioAssay AID1461 (National Center for Advancing Translational Sciences (NCATS), 2008)
# Hit rate of the full screen: of about 220,000 compounds, about 2,300 (1%) were called active. The shares of active, inactive and inconclusive entries below differ from those in the screen. Calls follow the shape of the dose curve; as a rule, active = well fitted inhibition curve with a large enough effect; inconclusive = small, poorly fitted or top-dose-only effect, or effect the other way; inactive = no such curve, though single readings can be large or run the other way. Potencies of inconclusive entries are left out as doubtful fits.
# Target: Neuropeptide S receptor (Homo sapiens) (UniProt Q6W5P4)
# Assay: qHTS Assay for Antagonists of the Neuropeptide S Receptor: cAMP Signal Transduction; also: nearly all actives have a fitted effect of over 50% in size
# Settings: CHO-NPSR cells, cAMP TR-FRET, antagonist mode; activity change, negative = inhibition: at 38.3 µM (top of the series) unless noted
# % is scaled to controls: 0 for no effect and ±100 for the full control effect; potency is read from the fitted curve at half-maximal effect; tags tell the direction and shape of the fitted curve.
# UniProt Q6W5P4, sequence (Q6W5P4 whole entry, looked up): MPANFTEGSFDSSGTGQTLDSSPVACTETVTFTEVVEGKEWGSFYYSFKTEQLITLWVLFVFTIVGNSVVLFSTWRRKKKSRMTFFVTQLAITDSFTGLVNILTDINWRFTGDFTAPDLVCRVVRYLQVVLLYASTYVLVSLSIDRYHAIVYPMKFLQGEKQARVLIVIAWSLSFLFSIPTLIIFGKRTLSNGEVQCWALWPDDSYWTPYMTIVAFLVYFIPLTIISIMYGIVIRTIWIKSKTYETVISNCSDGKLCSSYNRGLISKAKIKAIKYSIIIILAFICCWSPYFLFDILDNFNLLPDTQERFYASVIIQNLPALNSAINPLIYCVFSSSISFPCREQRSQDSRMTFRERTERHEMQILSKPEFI
Structure (SMILES),Potency,"activity change, negative = inhibition"
COC(=O)c1ccc(-c2noc(CN(C)CCC3CCCCO3)n2)cc1 (stereo unspecified),"inconclusive [activator, single point]",–
Cc1nc2c(c(=O)n1Cc1ccccc1Cl)c1nc3ccccc3nc1n2Cc1ccco1,active: 12.6 µM,–
CCC(=O)N(CCC1(c2ccccc2OC)CCOC(C(C)C)C1)Cc1ccco1 (stereo unspecified),"inconclusive [activator, partial curve]",–
COCCCn1c(SCc2cccc(C(F)(F)F)c2)nc2cc(OC)c(OC)cc2c1=N,"inconclusive [inhibitor, single point]",–
CCOc1cc(N2CCOCC2)c(OCC)cc1NC(=O)c1ccc(C)cc1,–,inactive: -28.1%
CC(=O)c1ccc(Oc2cc(C)nc(-n3nc(C)cc3C)n2)cc1,"inconclusive [activator, single point]",–
Cc1cc(-c2nc(C)c(-c3nnc(SCC(=O)Nc4ccc(Cl)cc4)n3C)s2)no1,"inconclusive [activator, single point]",–
Cc1ccc(Nc2nc(-c3c(C)nc4ncccn34)cs2)cc1,–,inactive: 4.18% [at 46.1 µM]
COC(=O)C1=CC(C(=O)c2cccs2)=NN(c2ccc(OC)cc2)C1C(=O)OC (stereo unspecified),"inconclusive [inhibitor, single point]",–
N#Cc1cccc(NC(=O)COC(=O)c2ccccc2C(=O)c2ccc(Cl)c([N+](=O)[O-])c2)c1,"inconclusive [inhibitor, single point]",–
CC(=O)Nc1ccc(N(C)C)cc1[N+](=O)[O-],"inconclusive [inhibitor, single point]",–
Cn1nc(-c2ccccc2)c(-c2nc(-c3cccc(Cl)c3)no2)c1Cl,"inconclusive [inhibitor, single point]",–
COc1cccc(/C=N/NC(=O)c2ccc(OCc3cccc(Br)c3)cc2)c1,"inconclusive [inhibitor, partial curve]",–
COc1ccc(C(=O)NCc2nnc(SCC(=O)N3CCc4ccccc43)n2Cc2ccccc2)cc1,–,inactive: -9.91%
C=C(C)c1cccc(C(C)(C)NC(=O)N(Cc2ccccc2)Cc2ccco2)c1,"inconclusive [inhibitor, single point]",–
c1ccc2c(c1)ncn2CCCCOc1ccc2c(c1)CCC2,"inconclusive [inhibitor, single point]",–
CN(CCO)c1c2c(nc3cc(-c4cccc(F)c4)nn13)CCCC2,"inconclusive [inhibitor, partial curve, poor fit]",–
CC(C)C(=O)NS(=O)(=O)c1ccc(NS(C)(=O)=O)cc1,"inconclusive [activator, single point]",–
O=C(NC1CCCCC1)C(c1cccs1)N(Cc1cccs1)C(=O)c1ccco1 (stereo unspecified),"inconclusive [inhibitor, partial curve]",–
O=C(CSc1cccs1)Nc1cccc2ccccc12,–,inactive: 5.99% [at 46.1 µM]
COC(=O)c1cc(=O)nc2sc3cc(OC)ccc3n12,–,inactive: 4.65% [at 46.1 µM]
CC(C)(C)OC(=O)NCCCC[C@H](NC(=O)c1nc[nH]c1C(=O)NC(c1ccccc1)c1ccccc1)C(=O)OC(C)(C)C,"inconclusive [activator, partial curve]",–
CCOC(=O)c1nc(C)sc1-c1ccnn1S(=O)(=O)c1ccc(C)cc1,–,inactive: 51.2%

Structure (SMILES),Potency,"activity change, negative = inhibition"
Cc1nn(-c2ccccc2)c(Cl)c1CN(C(=O)CCl)c1ccc(Cl)cc1,"inconclusive [inhibitor, single point]",–
CC(C)(C)c1ccc(C(=O)Nc2nonc2-c2nc3ccccc3[nH]2)cc1,"inconclusive [inhibitor, full curve, poor fit]",–
COc1ccc(C(=O)Nn2c(SCC(=O)c3ccc(Cl)cc3)nc3ccccc3c2=O)cc1,"inconclusive [inhibitor, single point]",–
FC(F)(F)c1cccc(NC(=S)Nc2ccc(Cl)c(Cl)c2)c1,"inconclusive [activator, single point]",–
CCN(CC)c1ccc(C2NCC(c3ccc([N+](=O)[O-])cc3)O2)cc1 (stereo unspecified),–,inactive: -10.8% [at 46.1 µM]
O=c1c(Br)c(N2CCCC2)cnn1-c1ccccc1,–,inactive: -10.1%
Cn1c(NNC(=O)CCC2CCCCC2)cc(=O)n(C)c1=O,–,inactive: 8.71%
Brc1cc(Br)c2ncnc(N3CCCCC3)c2c1,active: 7.94 µM,–
Cc1cc(N2CCN(c3ccc([N+](=O)[O-])c4cccnc34)CC2)c2ccccc2n1,"inconclusive [inhibitor, single point]",–
O=C(Nc1ccc(Cl)cc1)N1CCCN(Cc2ccc(F)cc2)C1,"inconclusive [inhibitor, single point]",–
CC(C)C(=O)c1c(C(C)C)nn2ccccc12,"inconclusive [inhibitor, single point]",–
Cc1ccc(C2=NC3(CCCCC3)NC2=S)cc1,–,inactive: 16.1%
Cc1cccc(NS(=O)(=O)c2ccc(NC(=O)CN(c3cc([N+](=O)[O-])ccc3C)S(C)(=O)=O)cc2)c1,–,inactive: -45.9%
NC(N)=N/N=C/c1ccc(OCc2ccc(Cl)cc2Cl)cc1,"inconclusive [inhibitor, single point]",–
COc1cccc(C2c3[nH]c4ccccc4c3CCN2Cc2cccc(C)n2)c1 (stereo unspecified),"inconclusive [activator, single point]",–
NS(=O)(=O)c1ccc(N2N=C(c3ccccc3)CC2c2cccc(F)c2)cc1 (stereo unspecified),–,inactive: -33.6%
COc1cccc(NC(=O)C2CCCN2C(=O)OCc2ccccc2)c1 (stereo unspecified),"inconclusive [activator, partial curve, poor fit]",–
Cc1sc(N)nc1-c1cccs1,–,inactive: -2.99% [at 46.1 µM]
CCOC(=O)NC(NC(=S)Nc1ccc(OC)cc1)C(Cl)(Cl)Cl (stereo unspecified),–,inactive: 7.13%
CCOc1ccc(NCC(=O)c2ccc(C)cc2)cc1,–,inactive: -3.84%
CNC(=S)N/N=C/c1cn(CCOc2ccccc2OC)c2ccccc12,–,inactive: 14.8%
COc1ccc(C(=O)/C=C/C(=O)N(CC(=O)NC2CCCCC2)Cc2cccs2)c(O)c1,"inconclusive [activator, full curve]",–
CCOC(=O)c1c(C)[nH]c(C2=NNC(=Nc3cccc(Cl)c3)SC2)c1C,–,inactive: -29.1%
